Data: the supplement of paper PMC12217912
The other results are listed elsewhere or left out. The full chains were built here from the parent and the listed change. Values near 0.05 are background.

B1: TEV protease; numbered along this chain (parent)
chain: MGESLFKGPRDYNPISSSICHLTNESDGHTTSLYGIGFGPFIITNKHLFRRNNGTLVVQSLHGVFKVKDTTTLQQHLVDGRDMIIIRMPKDFPPFPQKLKFREPQREERICLVTTNFQTKSMSSMVSDTSCTFPSGDGIFWKHWIQTKDGQCGSPLVSTRDGFIVGIHSASNFTNTNNYFTSVPKNFMELLTNQEAQQWVSGWRLNADSVLWGGHKVFMVKPEEPFQPVKEATQL

Variants of: B1
Assay: raw area under fraction-flipped curve 0-4 h after induction (AUC4h, not background-subtracted), DNA-recorder readout of cleavage of the substrate (dimensionless); higher = more cleavage of the substrate by the protease variant
Conditions: temperature: 34 °C; time window: 0-4 h after rhamnose induction
Method: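 In vivo DNA recorder in E. coli TOP10(DE3) ΔrhaA at 34 °C. Each TEVp single-site mutant (parent TEVp 0) is paired with a single-site variant of the 7-mer TEVs (canonical ENLYFQ|S). The substrate sits between flexible linkers in a Bxb1-sfGFP-TEVs-SsrA fusion, so cleavage stabilises Bxb1 and speeds flipping of a recombination array, read by NGS. The value is the raw area under the fraction-flipped curve over 0-4 h after rhamnose induction (AUC4h), with ≥20 reads per time point. It is not background-subtracted; inactive controls average about 0.047.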
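Note: Bxb1 expression induced with 0.2% (w/v) L-rhamnose at OD600 near 0.5, cultures sampled hourly, flipped fraction per protease–substrate barcode pair counted by paired-end Illumina sequencing.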

| Variant | area with substrate CNLYFQS | area with substrate FNLYFQS | area with substrate INLYFQS | area with substrate KNLYFQS | area with substrate LNLYFQS | area with substrate NNLYFQS | area with substrate RNLYFQS | area with substrate GNLYFQS | area with substrate HNLYFQS | area with substrate MNLYFQS | area with substrate PNLYFQS | area with substrate QNLYFQS | area with substrate SNLYFQS | area with substrate TNLYFQS | area with substrate VNLYFQS | area with substrate WNLYFQS | area with substrate YNLYFQS |
| --- | --- | --- | --- | --- | --- | --- | --- | --- | --- | --- | --- | --- | --- | --- | --- | --- | --- |
| K221W | 0.0577 | 0.0573 | 0.0511 | 0.0865 | 0.0614 | 0.0632 | 0.0564 |  |  |  |  |  |  |  |  |  |  |
| P96I | 0.0709 |  | 0.0605 | 0.056 |  | 0.0623 |  | 0.0619 | 0.0702 | 0.0624 | 0.0547 | 0.0781 | 0.0668 | 0.0682 | 0.0752 | 0.064 | 0.0579 |
| E25M | 0.0673 |  | 0.0749 | 0.074 | 0.064 |  | 0.0648 | 0.0632 | 0.0733 |  | 0.0705 |  |  | 0.0692 | 0.093 | 0.0636 | 0.0703 |
| E25H | 0.0719 | 0.0444 | 0.0715 |  | 0.0646 |  |  | 0.0399 | 0.0708 | 0.0538 | 0.0562 |  | 0.0643 | 0.0621 |  | 0.056 | 0.0638 |
| R51W | 0.13 |  |  | 0.0814 |  | 0.0768 |  |  | 0.0656 |  | 0.0679 |  |  | 0.072 | 0.0717 | 0.0464 |  |
| I139R | 0.0637 |  | 0.0385 | 0.0548 | 0.0647 |  |  |  |  | 0.0548 | 0.0588 |  | 0.0431 | 0.09 | 0.0571 | 0.0561 | 0.0582 |
| V229A | 0.0711 |  | 0.0689 |  | 0.0683 | 0.0773 |  |  |  |  | 0.0442 |  | 0.0427 | 0.0601 |  |  | 0.0452 |
| E107P | 0.0709 | 0.0592 | 0.0432 | 0.0636 |  |  |  | 0.0642 | 0.0457 | 0.0682 | 0.0721 |  | 0.0741 | 0.0636 | 0.0726 |  |  |
| N175H | 0.0243 |  | 0.0651 |  |  | 0.0875 |  |  | 0.0597 |  | 0.0582 |  |  |  |  |  |  |
| G150I | 0.0583 | 0.0831 | 0.0506 | 0.0688 |  |  |  |  | 0.0719 | 0.0563 | 0.0543 | 0.0283 | 0.0608 | 0.0584 | 0.0681 | 0.0486 | 0.0612 |
| T147A | 0.068 | 0.0634 |  | 0.0494 |  |  |  | 0.057 | 0.0457 |  |  |  | 0.0476 | 0.061 | 0.0605 | 0.0589 | 0.0639 |
| G162W | 0.0854 | 0.0572 | 0.0622 | 0.0569 | 0.0408 |  |  |  | 0.0611 | 0.0679 | 0.059 | 0.0716 | 0.0664 | 0.0641 |  |  |  |
| T71R | 0.0567 |  | 0.0668 | 0.0655 | 0.0595 |  |  |  | 0.0611 |  | 0.0811 |  | 0.0639 | 0.101 | 0.0596 | 0.0677 |  |
| K100C | 0.0728 |  | 0.0562 | 0.0292 | 0.0598 | 0.0622 | 0.056 | 0.0716 | 0.0711 |  | 0.0801 |  |  | 0.0672 |  | 0.0688 | 0.0618 |
| L156T | 0.0649 | 0.0409 | 0.0633 | 0.0409 | 0.0662 | 0.0646 |  | 0.0743 | 0.0688 | 0.0604 |  |  |  | 0.0696 | 0.109 | 0.0577 |  |
| H76K | 0.0673 | 0.0528 |  | 0.0672 | 0.0655 |  |  |  | 0.0624 |  | 0.0467 |  | 0.0495 | 0.0561 |  |  | 0.0618 |
| N178G | 0.069 |  | 0.105 |  |  |  |  | 0.0915 |  |  |  |  |  |  |  | 0.0756 | 0.063 |
| N178K | 0.0928 | 0.0507 | 0.0275 |  | 0.0637 | 0.0544 |  |  | 0.0618 |  | 0.0949 |  |  |  |  | 0.0562 |  |

| Variant | area with substrate CNLYFQS | area with substrate FNLYFQS | area with substrate INLYFQS | area with substrate KNLYFQS | area with substrate LNLYFQS | area with substrate NNLYFQS | area with substrate RNLYFQS | area with substrate GNLYFQS | area with substrate HNLYFQS | area with substrate MNLYFQS | area with substrate PNLYFQS | area with substrate QNLYFQS | area with substrate SNLYFQS | area with substrate TNLYFQS | area with substrate VNLYFQS | area with substrate WNLYFQS | area with substrate YNLYFQS |
| --- | --- | --- | --- | --- | --- | --- | --- | --- | --- | --- | --- | --- | --- | --- | --- | --- | --- |
| N178H | 0.0568 |  |  |  | 0.0592 |  | 0.0552 |  | 0.0605 | 0.0619 | 0.0682 |  |  | 0.0641 | 0.0618 | 0.0442 | 0.0656 |
| D79P | 0.0743 |  |  |  | 0.0734 |  |  |  |  |  |  | 0.0689 |  | 0.0625 |  | 0.0564 |  |
| F49W | 0.069 |  | 0.0495 | 0.0561 | 0.0607 | 0.0536 |  | 0.0435 | 0.0598 | 0.0723 | 0.061 | 0.0545 | 0.0714 | 0.0686 | 0.0652 | 0.055 | 0.0606 |
| C131V | 0.0589 |  | 0.0696 | 0.0695 |  | 0.0759 |  |  |  | 0.0732 |  |  |  |  |  |  |  |
| I110L | 0.0681 |  |  |  | 0.0553 |  |  |  | 0.0697 |  | 0.08 |  | 0.0371 | 0.0646 |  | 0.0623 | 0.0626 |
| D27N | 0.0586 | 0.0437 |  | 0.0533 | 0.0624 |  | 0.0548 | 0.0507 | 0.0602 | 0.0416 | 0.0624 |  | 0.0646 |  |  | 0.0472 | 0.0598 |
| D27M | 0.0782 | 0.0647 | 0.0637 |  | 0.063 |  |  | 0.0719 | 0.0533 | 0.0499 | 0.0651 |  | 0.0599 |  | 0.0623 | 0.0676 |  |
| L5A | 0.0687 | 0.0678 |  | 0.0677 |  |  |  | 0.0624 | 0.0753 |  | 0.0811 |  |  |  |  | 0.0704 |  |
| T23D | 0.0631 |  | 0.0563 |  | 0.0615 |  |  |  | 0.0622 | 0.0413 | 0.0537 | 0.0627 | 0.0713 | 0.0611 |  | 0.0584 | 0.0602 |
| S169P | 0.0588 | 0.0593 | 0.0526 | 0.06 |  | 0.0538 | 0.0625 | 0.0549 | 0.0583 | 0.0559 | 0.0612 |  | 0.0537 | 0.0618 | 0.0614 | 0.0551 | 0.0349 |
| Q118D | 0.0577 |  | 0.0884 |  |  |  |  |  |  |  |  | 0.12 |  | 0.0566 |  | 0.0516 | 0.0672 |
| F117C | 0.0618 | 0.0495 | 0.0517 |  | 0.0658 | 0.0822 |  |  | 0.063 | 0.0617 | 0.0673 |  | 0.0628 | 0.105 |  |  | 0.0551 |
| P134N | 0.0399 | 0.0692 |  |  | 0.0514 |  |  |  | 0.0568 | 0.0615 |  |  | 0.057 | 0.0544 |  | 0.056 | 0.0598 |
| P94S | 0.094 |  |  |  |  |  |  |  |  |  | 0.0836 |  |  |  |  | 0.0637 |  |
| N193L | 0.0812 |  |  | 0.0501 |  |  |  | 0.0447 |  |  | 0.0573 | 0.059 |  | 0.0611 | 0.0985 | 0.058 | 0.0529 |
| G202T | 0.0345 |  |  |  |  |  |  | 0.0521 |  |  | 0.0714 |  | 0.0484 | 0.0665 |  |  | 0.0644 |
| Q59L | 0.0594 | 0.0385 |  |  | 0.0723 | 0.0866 | 0.0651 | 0.0749 | 0.0565 |  | 0.0756 |  | 0.0798 | 0.0626 |  |  |  |
